# Laboratory results from PubChem BioAssay AID488969 (Vanderbilt High Throughput Screening Facility, 2010).
# In all, about 110,000 compounds were measured (“z-score”: median about -0.1, highest 2% from about 2 on). Some of the results follow. Activity calls are given as the source filed them.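 Rule for the calls: active = z-score in the third read window above 3 or below -3; inactive = the rest.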
# Target: Metabotropic glutamate receptor 8 (Rattus norvegicus) (UniProt P70579)
# Test: mGluR8 Gi/Go-coupled signaling modulation – cell-based, rat, thallium flux, HTS, primary screen (AID 488969)
# Details: HEK293 rat mGluR8, GIRK (G protein-gated inwardly rectifying potassium channel) thallium flux, FluoZin2; at 10 µM; stronger effect = higher value; submaximal glutamate (EC20) added with thallium
# UniProt P70579, sequence (P70579 whole entry, looked up): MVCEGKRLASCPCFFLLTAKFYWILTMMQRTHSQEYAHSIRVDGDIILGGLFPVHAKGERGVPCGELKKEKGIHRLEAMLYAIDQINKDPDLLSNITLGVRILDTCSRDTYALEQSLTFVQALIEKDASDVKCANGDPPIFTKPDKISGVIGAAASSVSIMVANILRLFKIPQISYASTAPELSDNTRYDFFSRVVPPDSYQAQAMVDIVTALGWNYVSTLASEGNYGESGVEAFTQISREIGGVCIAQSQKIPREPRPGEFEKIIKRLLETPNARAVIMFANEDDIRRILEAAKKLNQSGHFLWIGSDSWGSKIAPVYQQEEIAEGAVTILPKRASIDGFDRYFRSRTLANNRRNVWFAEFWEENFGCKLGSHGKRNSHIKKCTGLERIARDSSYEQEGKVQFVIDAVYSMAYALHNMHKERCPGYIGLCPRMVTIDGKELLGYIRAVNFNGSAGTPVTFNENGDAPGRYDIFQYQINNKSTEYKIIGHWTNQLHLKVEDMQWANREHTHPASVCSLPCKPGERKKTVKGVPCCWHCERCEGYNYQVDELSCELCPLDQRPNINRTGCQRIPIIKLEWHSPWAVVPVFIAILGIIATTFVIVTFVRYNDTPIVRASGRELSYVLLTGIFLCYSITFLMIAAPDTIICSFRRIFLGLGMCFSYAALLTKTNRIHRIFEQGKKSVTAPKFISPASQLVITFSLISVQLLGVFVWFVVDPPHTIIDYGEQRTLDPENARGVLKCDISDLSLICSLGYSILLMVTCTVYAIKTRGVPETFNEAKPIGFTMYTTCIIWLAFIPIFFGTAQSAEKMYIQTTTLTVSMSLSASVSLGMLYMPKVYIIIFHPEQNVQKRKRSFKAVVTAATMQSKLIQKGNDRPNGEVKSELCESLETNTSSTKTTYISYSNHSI
row,Compound,z-score
1,CC1CCCN(CCC(=O)Nc2ccc3c(c2)CCC3)C1 (stereo not given),0.205
2,CCOC(=O)c1cc2ccccc2n1CCN(CC)CC,0.431
3,CC(=O)N1CCc2cc(S(=O)(=O)Nc3ccccc3N3CCN(C)CC3)ccc21,0.539
4,CN(CCO)c1cc(N2CCN(C(=O)c3ccco3)CC2)c2nonc2c1[N+](=O)[O-],-0.172
5,CCOc1ccc(OCC)c(NC(=O)Nc2ccc3c(c2)N(C)C(=O)CS3)c1,-2.61
6,Cc1ccc(S(=O)(=O)N2CCOCC2)cc1C(=O)Nc1nc(-c2cccnc2)cs1,0.271
7,CCN(CC)S(=O)(=O)c1cc(C(=O)OCC(=O)Nc2cccc(C)c2C)ccc1F,-1.28
8,CCSc1nnc(NC(=O)C2Cc3ccccc3CN2C(=O)c2ccco2)s1 (stereo not given),0.124
9,CSc1ccc(Cl)c(C(=O)NCCOc2ccccc2)c1,0.236
10,COC(=O)c1ccc(N(C(=O)c2ccco2)C(C(=O)NC2CCCC2)c2ccco2)cc1 (stereo not given),-0.539
11,Cn1c(CSc2nc3ccc(Br)cc3[nH]2)nc2ccccc21,-0.946
12,Cc1cc(NC(=O)c2cc(-c3cccs3)nc3ccccc23)no1,0.906
13,CCCc1ccc(/C=C2\C(=O)c3ccccc3C(O)=C2C(=O)OCC)cc1,-0.286
14,CC(=O)N1CCc2cc(C(=O)CN3CCN(c4cccc(Cl)c4)CC3)ccc21,-0.422
15,Cc1nc(C)c(C(=O)C2=C(O)C(=O)N(CCN(C)C)C2c2ccccc2)s1 (stereo not given),0.215
16,COCC(=O)N(C)c1nnc(-c2cnccn2)s1,0.018
17,N#C/C(=C\C1CC2C=CC1C2)c1nc2ccccc2[nH]1 (stereo not given),-0.254
18,CCOc1ccc(NC(=S)NC(=O)/C=C/c2ccc(C)cc2)c([N+](=O)[O-])c1,0.317
19,CCOC(=O)c1c(C)[nH]c(C(=O)C(C)Sc2ccc(Cl)cc2)c1C (stereo not given),-0.12
20,CC1CCC(=C(C#N)c2nc(-c3cc4ccccc4oc3=O)cs2)CC1 (stereo not given),-1.32
21,COc1ccc(OCC(=O)O/N=C(\N)Cc2ccc(Cl)cc2Cl)cc1,0.353
22,COc1ccc(/C=N/NC(=O)COc2cccc3ccccc23)c(C(=O)O)c1OC,-0.209
23,O=C(CSc1ccsc1[N+](=O)[O-])N1CCN(c2ccccc2)CC1,-0.247
24,CCNC(=S)NNC(=O)c1ccc(OC(F)F)cc1,-0.194

row,Compound,z-score
1,CC(=O)Nc1cc(NC(=O)C2C3C=CC(C3)C2C(=O)O)ccc1Cl (stereo not given),-0.156
2,CCOC(=O)CSc1nnc(CSc2nc3sc4c(c3c(=O)[nH]2)CCC4)n1-c1ccccc1,-0.572
3,COc1ccc(C)cc1NC(=O)c1cc2ccccc2cc1OCC(=O)NCc1ccco1,-0.19
4,CC(=O)c1cccc(NC(=O)CCC2CCCC2)c1,-0.34
5,O=C(CSCc1c(Cl)cccc1Cl)Nc1ccc2c(c1)OCO2,-0.187
6,COc1ccc(C2C(C#N)=C(/N=C/N3CCOCC3)OC3=C2C(=O)CC(C)(C)C3)cc1OC (stereo not given),0.0234
7,Cc1ccc(C(=O)NCc2ccco2)cc1S(=O)(=O)Nc1cccc(Cl)c1,0.648
8,COc1ccc(N2C(=S)N(C(=O)c3ccccc3)C(=Nc3ccccc3)C2=Nc2ccccc2)cc1,-1.23
9,CCOC(=O)C1=C(C)NC(C)=C(C(=O)OCC)C1c1cc(N)ccc1OC(F)F,0.589
10,COC(=O)Cn1c(CN2CCc3ccccc3C2)nc2c1c(=O)n(C)c(=O)n2C,active: 5.81
11,Oc1ccccc1-c1nnc(-c2ccc(C(F)(F)F)cc2)o1,1.18
12,OC(CC1CC12c1ccccc1-c1ncccc12)(c1ccccc1)c1ccccc1 (stereo not given),-0.549
13,O=C(NCCN1CCNCC1)c1ccccn1,-0.233
14,COc1cc(CNC2CCCCCC2)cc(OC)c1,0.372
15,O=C(COc1ccc(S(=O)(=O)N2CCCCC2)cc1)NC1CCCCC1,-0.0527
16,C=CCNC(=O)/C(C#N)=C\c1cc(Cl)c(OCC)c(OC)c1,-0.355
17,COC(=O)Nc1ccc(S(=O)(=O)N2CCCCCC2)cc1,0.0534
18,CCNc1c(NC(C)=O)c(=O)oc2ccccc12,-0.177
19,Cc1sc2nc(CN3CCC(C)CC3)nc(Cl)c2c1C,-0.57
20,Cc1nc(-c2cn[nH]c2-c2ccc(O)cc2O)cs1,-0.501
21,Cc1nn(C)cc1C(=O)NNC(=S)Nc1ccc(Cl)cc1,0.0234
22,O=C(CCN1CCN(c2ccc(F)cc2)CC1)Nc1ccccc1F,-0.192
23,O=C(NCCc1ccccc1)c1ncn[nH]1,0.205
24,Cc1ccc(-n2nc(C(=O)c3ccccc3)n3c(=O)cc(-c4ccccc4)nc23)cc1,1.02

row,Compound,z-score
1,O=C1C(=O)c2ccc(-c3ccccc3)cc2-c2ccccc21,-0.359
2,CCS(=O)(=O)c1ccc(S(=O)(=O)CC)s1,-0.137
3,O=C(NC1(C(F)(F)F)N=C2SCCN2C1=O)c1ccco1 (stereo not given),-0.349
4,CC(C(=O)OCC(=O)Nc1ccc(S(=O)(=O)N2CCCCC2)cc1)N1C(=O)c2ccccc2C1=O (stereo not given),0.0234
5,COc1ccc(CN(C)Cc2ccccc2)c(OC)c1OC,-0.0272
6,CC(c1ccccc1)C(CC(=O)O)C(=O)NC1CCCCC1 (stereo not given),-0.131
7,COC(=O)c1cc(Br)c(=O)n(CCC2=CCCCC2)c1,-0.943
8,O=C(Cc1sc(-c2ccccc2)nc1-c1ccccc1)Nc1ccc(Cl)cc1,0.0651
9,O=C(NCc1ccc2c(c1)OCO2)c1ccc(CSCc2ccc(Cl)cc2)o1,-0.191
10,CC(=O)C1=C(O)C(=O)N(C2CCCCC2)C1c1ccccc1 (stereo not given),-0.691
11,C=CCC(C#Cc1ccc(C)cc1)N(CC)CC (stereo not given),-0.418
12,COc1ccc(S(=O)(=O)NNC(=O)c2cc3ccccc3o2)cc1,0.198
13,Cc1nc2c(-c3ccc(F)cc3)c(C)nn2c(C)c1CCC(=O)NCCN1CCOCC1,-0.0995
14,Cc1sc2c(c1C)c(=O)n(-c1cccc(C(F)(F)F)c1)c(=O)n2CC(=O)NCc1ccco1,-0.979
15,C=CCSc1nnc2c(n1)OC=Nc1ccc(Br)cc1-2,-0.557
16,CC(C)(C)C1CCC2(CC1)NC(=S)N(c1ccccc1)N2 (stereo not given),0.0264
17,Cc1cccc(OCCOCCN2CCNCC2)c1C,0.208
18,Cc1ccc(Oc2c(C(N)=O)cc([N+](=O)[O-])cc2[N+](=O)[O-])cc1,0.52
19,CCN(C(=O)COC(=O)c1ccccc1Nc1cccc(C)c1C)C1CCS(=O)(=O)C1 (stereo not given),0.0398
20,COc1cccc2cc(C(=O)NCC3CCCO3)c(=O)oc12 (stereo not given),-0.108
21,O=C1/C(=C\Nc2ccc(OC(F)(F)F)cc2)CCN1c1ncccn1,0.0056
22,CCOC(=O)c1cc(-c2ccncc2)nc2c1c(C)nn2-c1ccccn1,-2.01
